Measurements as given in PubChem BioAssay AID1460 (National Center for Advancing Translational Sciences (NCATS), 2008).
Hit rate of the full screen: of about 270,000 compounds, about 5,800 (2.1%) were called active. The inconclusive results got no clear call from the source; some entries with a clear call stand among them for comparison. Calls come from the whole dose curve; as a rule, active = well fitted inhibition curve with a large enough effect; inconclusive = small, poorly fitted or top-dose-only effect; inactive = flat fitted curve, though single readings scatter. A potency beside an inconclusive call is a rough fit, not a confirmed value.

molecular target: Microtubule-associated protein tau (Homo sapiens) (UniProt P10636); test: qHTS for Inhibitors of Tau Fibril Formation, Thioflavin T Binding; details: recombinant tau K18 P301L (four-repeat tau fragment), heparin-induced fibrillization, ThT fluorescence; series mostly up to 57.4 µM; note: nearly all actives have a fitted effect of over 55% in size
Chain of UniProt P10636 (P10636 whole entry, looked up, the tested form may be a part): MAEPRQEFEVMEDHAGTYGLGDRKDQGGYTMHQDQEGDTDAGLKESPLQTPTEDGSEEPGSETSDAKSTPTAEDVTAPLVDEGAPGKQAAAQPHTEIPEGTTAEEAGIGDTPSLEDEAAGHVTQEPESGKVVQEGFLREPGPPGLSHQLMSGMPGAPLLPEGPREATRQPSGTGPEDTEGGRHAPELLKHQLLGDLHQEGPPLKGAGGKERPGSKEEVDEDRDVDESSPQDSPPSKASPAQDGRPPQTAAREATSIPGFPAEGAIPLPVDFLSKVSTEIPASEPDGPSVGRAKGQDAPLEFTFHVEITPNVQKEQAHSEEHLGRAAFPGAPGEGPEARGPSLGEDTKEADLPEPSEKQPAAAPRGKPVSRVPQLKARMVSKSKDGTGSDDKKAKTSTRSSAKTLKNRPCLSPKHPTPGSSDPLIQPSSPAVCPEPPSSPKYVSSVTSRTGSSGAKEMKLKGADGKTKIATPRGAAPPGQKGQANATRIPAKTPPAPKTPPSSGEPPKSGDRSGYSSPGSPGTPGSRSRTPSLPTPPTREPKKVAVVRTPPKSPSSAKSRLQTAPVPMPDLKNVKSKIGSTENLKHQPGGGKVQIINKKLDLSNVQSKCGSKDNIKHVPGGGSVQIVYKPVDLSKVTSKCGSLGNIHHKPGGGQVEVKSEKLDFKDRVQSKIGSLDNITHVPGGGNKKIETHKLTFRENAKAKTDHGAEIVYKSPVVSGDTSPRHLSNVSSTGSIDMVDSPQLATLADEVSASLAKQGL
Method in brief: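 Tau K18 P301L fragment (15 uM unlabeled plus 0.24 uM Alexa 594-labeled) in 100 mM sodium acetate pH 7 with compound, fibrillization induced by 20 uM heparin for 6 hr at 37 C. Thioflavin T (30 uM) added, fluorescence read after 1 hr (ex 450, em 510 nm).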
Potency is the fitted concentration of half-maximal effect; tags give direction and shape of the fitted curve.

Row | Structure (SMILES) | Potency
1 | CC(=O)c1ccc(NC(=S)Nc2ccc(Br)c(Cl)c2)cc1 | inactive
2 | CC(=O)C1=C(C)NC(SCC(=O)c2cc(Cl)ccc2Cl)=C(C#N)C1c1ccco1 (centres undefined) | active: 28.2 µM
3 | Cc1c(C(c2ccc(N(C)C)cc2)c2c(C)n(C)n(-c3ccccc3)c2=O)c(=O)n(-c2ccccc2)n1C | inactive
4 | Cc1ccc(N2CC(C)Cn3c2nc2c3c(=O)n(CC(=O)O)c(=O)n2C)cc1 (centres undefined) | inactive
5 | O=C1CC(c2nc3ccccc3n2CCCOc2ccccc2)CN1c1ccc(F)cc1 (centres undefined) | inconclusive: 25.1 µM [inhibitor, partial curve]
6 | Cc1ccc(/C=N/NC(=O)c2ccc3c(c2)OCCO3)s1 | inconclusive: 2.82 µM [inhibitor, partial curve]
7 | CN(C)CCNC(=O)CCCN1C(=O)c2cccnc2Oc2ccc(Cl)cc21 | inactive
8 | Cc1[nH]n(-c2ccc([N+](=O)[O-])cc2)c(=O)c1C=NCCN1CCN(C(=O)c2cccc(F)c2)CC1 | inconclusive: 17.8 µM [inhibitor, partial curve]
9 | O=C(CCN1c2ccccc2Sc2ccccc21)OCc1nnc(-c2ccccc2)o1 | inconclusive: 15.8 µM [inhibitor, partial curve]
10 | O=c1cc(-c2ccccc2)oc2cc(OCc3ccccc3)cc(O)c12 | inactive
11 | CCn1c(=N)c(S(=O)(=O)c2ccc(C)cc2)cc2c(=O)n3ccccc3nc21 | inconclusive: 31.6 µM [inhibitor, single point]
12 | O=C(Cc1ccccc1)NCc1ccncc1 | inconclusive: 20 µM [inhibitor, single point]
13 | C=C(C)Cn1c(-c2ccncc2)n[nH]c1=S | inactive
14 | CC1(C)CC(=O)c2cc(-c3nc(-c4ccc(Cl)cc4)cs3)c(=O)n(-c3ccc(Cl)cc3)c2C1 | inactive
15 | Cc1ccc(Cl)cc1NC(=O)CSC1=Nc2ccccc2C2=NC(Cc3ccccc3)C(=O)N12 (centres undefined) | inactive
16 | CCOC(=O)c1ccc2c(c1)NC(=O)C(N1CCN(c3ccc(OC)cc3)CC1)S2 (centres undefined) | inconclusive: 3.16 µM [inhibitor, full curve]
17 | CCn1nc(C)c(NC(=O)c2ccc(Cl)cc2)c1C | inactive
18 | COc1cccc(/C=N/NC(=O)NC2CCCCC2)c1O | inactive
19 | Cn1ccnc1SCCNC(=O)CCc1nnc(CCc2ccccc2)o1 | inconclusive: 35.5 µM [inhibitor, partial curve]
20 | CCOC(=O)C1=C(CSc2nc3c(cc2C#N)CCC3)OC(N)=C(C#N)C1c1ccccc1 (centres undefined) | inconclusive: 22.4 µM [inhibitor, partial curve]
21 | CCc1ccc(NC(=O)CN2C(=O)C3(SCC(=O)N3c3ccccc3)c3ccccc32)cc1 (centres undefined) | inactive
22 | O=C(NC(=S)N1CCN(Cc2ccccc2)CC1)c1cccnc1 | inactive
23 | CCCCn1c(CN2CCN(C(=O)c3ccco3)CC2)nc2c1c(=O)n(C)c(=O)n2C | inactive

Row | Structure (SMILES) | Potency
24 | Cc1ccc(/C([O-])=C(/C(=S)NCc2ccco2)[n+]2ccccc2)cc1 | inconclusive: 28.2 µM [inhibitor, partial curve]
25 | CSCCNC(=O)c1ccc(C(C)(C)C)cc1 | inactive
26 | COc1ccc(NC(=O)c2sc3nc(C)c(C(=O)Nc4ccc(C)cc4C)c(-c4ccc(C)o4)c3c2N)cc1 | inconclusive: 17.8 µM [inhibitor, partial curve, poor fit]
27 | COc1ccc(Br)cc1/C=N/NC(=O)c1nc(-c2ccccc2)n2c1CCCCC2 | inconclusive: 15.8 µM [inhibitor, partial curve]
28 | O=C(Nc1ccc(Br)cn1)c1ccc([N+](=O)[O-])o1 | inconclusive: 28.2 µM [inhibitor, partial curve]
29 | CCOC(=O)C1CCCN(c2ccc(NC(=O)c3snc4c(=O)[nH]cnc34)cc2)C1 (centres undefined) | active: 2.82 µM
30 | CCOC(=O)C1CCN(CC(=O)N2CCCc3c2c(=O)oc2ccc(OCc4ccccc4)cc32)CC1 | inconclusive: 25.1 µM [inhibitor, single point]
31 | COC(=O)C1(C(C)=O)CC2=CC[C@@H]3C(=O)N(c4ccccc4)C(=O)[C@@H]3[C@@H]2Cc2ccccc2[C@@H]1C[N+](=O)[O-] (some centres undefined) | inconclusive: 3.55 µM [inhibitor, single point]
32 | Cc1cccc(OCc2nnc(SCC(=O)NCCc3ccccc3)o2)c1 | inconclusive: 28.2 µM [inhibitor, partial curve, poor fit]
33 | CCOC(=O)N1CCN(C(=S)NC(=O)c2ccc(Br)cc2)CC1 | inactive
34 | COc1ccc(OCCCCn2c(C3CC(=O)N(c4cccc(Cl)c4)C3)nc3ccccc32)cc1 (centres undefined) | inconclusive: 12.6 µM [inhibitor, partial curve]
35 | COc1ccc(-c2cc(C(F)F)nc(-n3nc(C)cc3C)n2)cc1 | inconclusive: 20 µM [inhibitor, partial curve]
36 | CCOC(=O)c1cnn(-c2ccc([N+](=O)[O-])cc2)c1N | inconclusive: 15.8 µM [inhibitor, partial curve]
37 | Cc1ccc(Cn2cc(/C=N/Nc3ccc([N+](=O)[O-])cn3)c3ccccc32)cc1 | active: 10 µM
38 | O=C(CSc1nnc(Cc2ccccc2)n1-c1ccc(F)cc1)N1CCOCC1 | inactive
39 | CC(C)CCNC(=O)c1ccc2c(c1)NC(=O)C(CS(=O)(=O)Cc1cccc(Br)c1)N2 (centres undefined) | inconclusive: 31.6 µM [inhibitor, single point]
40 | Cc1ccc(NC(=O)/C(C#N)=C/c2ccc(C)o2)cc1 | inconclusive: 1.78 µM [inhibitor, full curve]
41 | O=C(Cc1cccs1)N/N=C/C=C/c1ccco1 | active: 25.1 µM
42 | COc1ccc(CCNc2ncnc3c2cnn3-c2cccc(Cl)c2)cc1 | inconclusive: 0.355 µM [inhibitor, full curve, poor fit]
43 | COc1ccc(-c2nc(-c3cccs3)c(-c3cccs3)[nH]2)cc1OC | inconclusive: 11.2 µM [inhibitor, partial curve]
44 | Cc1occc1C(=O)NCCCCc1ccccc1 | inactive
45 | COc1ccc(-c2nc(CSCC(=O)N3CCN(c4ccc(OC)cc4)CC3)c(C)o2)cc1 | inconclusive: 15.8 µM [inhibitor, partial curve]
46 | Cc1ccc(NC(=O)c2oc3ccc(S(=O)(=O)N(C)C4CCCCC4)cc3c2C)cc1Cl | inactive

Row | Structure (SMILES) | Potency
47 | COCCNC(=O)CCCN1C(=O)c2ccccc2Sc2ncccc21 | inactive
48 | Cn1c(Cl)cnc1C1CC(=O)c2cc(Cl)ccc2O1 (centres undefined) | inconclusive: 25.1 µM [inhibitor, partial curve, poor fit]
49 | COc1cc(/C=N/NC(=O)c2ccc3ccccc3c2)ccc1Oc1ccc([N+](=O)[O-])cn1 | inconclusive: 10 µM [inhibitor, partial curve]
50 | Cc1ccc(OCC(=O)Nc2ccc(-c3nc4ncccc4o3)cc2)cc1 | inconclusive: 0.447 µM [inhibitor, full curve]
51 | N#CC1=CN(Cc2ccccc2)C=C(/C=N/Nc2ccccc2)C1 | inconclusive: 20 µM [inhibitor, partial curve]
52 | CCOC(=O)c1c(NC(=O)CSc2nnc(-c3cccnc3)n2Cc2ccco2)sc(C)c1C | inconclusive: 8.91 µM [inhibitor, partial curve]
53 | CCCN(c1ccccc1CC)S(=O)(=O)c1ccc2c(c1)CC(C)N2C(=O)C1CC1 (centres undefined) | inactive
54 | C=CCc1cccc2cc(C(=O)Nc3ccc(CC(=O)O)cc3)c(=O)oc12 | inconclusive: 2.82 µM [inhibitor, partial curve, poor fit]
55 | CCN(CCCNC(=O)c1cc2cc3ccc(C)cc3nc2s1)c1ccccc1 | inconclusive: 1.78 µM [inhibitor, full curve]
56 | Cc1occc1C(=O)Nc1sc2c(c1C(N)=O)CCCCC2 | inconclusive: 17.8 µM [inhibitor, partial curve]
57 | O=S(=O)(c1ccc(N=C2NN=C(c3cc(F)ccc3F)CS2)cc1)N1CCOCC1 | active: 6.31 µM
58 | CCOC(=O)c1cc(-c2ccccc2)n(CC(=O)N(C)c2ccc(OC)cc2)c1C | inconclusive: 25.1 µM [inhibitor, single point]
59 | CC1=C(C)/C(=N\OC(=O)/C=C/c2ccccc2)C=CC1=O | active: 12.6 µM
60 | O=C1C(CSCc2ccccc2)NC(=S)N1c1ccccc1 (centres undefined) | inconclusive: 39.8 µM [inhibitor, single point]
61 | COc1ccc(/C=C(/NC(=O)c2ccccc2)C(=O)N/N=C/c2ccc3c(c2)OCO3)cc1OC | inconclusive: 11.2 µM [inhibitor, partial curve, poor fit]
62 | CCOc1ccc(-c2nc(C#N)c(NCC3CCCO3)o2)cc1 (centres undefined) | inconclusive: 31.6 µM [inhibitor, partial curve, poor fit]
63 | N#Cc1ccc(NC(=O)Nc2cccc(C#N)c2)cc1 | inconclusive: 12.6 µM [activator, partial curve]
64 | Clc1ccc(-c2cc(COc3ccccc3)no2)cc1Cl | inconclusive: 17.8 µM [inhibitor, partial curve]
65 | COc1ccc(C)cc1Nc1nc(-c2cccc(Cl)c2)c2c(n1)-c1ccccc1OC2 | inconclusive: 1.41 µM [inhibitor, full curve]
66 | CC(C)C(C(=O)Nc1ncn[nH]1)N1C(=O)c2ccccc2C1=O (centres undefined) | inactive
67 | COc1ccc(/C=N/NC(=O)c2nc(-c3ccccc3)n(-c3ccccc3)n2)cc1 | inconclusive: 22.4 µM [inhibitor, single point]
68 | CCCc1nc(-c2cc3ccc(C)cc3[nH]c2=O)no1 | inconclusive: 5.01 µM [inhibitor, partial curve, poor fit]
69 | C=CCSc1nnc(-c2cc(Br)ccc2N)c(=O)[nH]1 | inconclusive: 31.6 µM [inhibitor, single point]
